This is an account of results in PubChem BioAssay AID463173 (ICCB-Longwood Screening Facility, Harvard Medical School, 2010).

In all, about 52,000 compounds went through this assay and about 1,700 (3.3%) were called active. Cut-off read from the data, not from the text of the source: active = survival mostly below about 52% (no sharp cut-off); inactive = mostly above about 56%. Some of the results follow.

In this assay the test system is Wild type. In words: growth inhibition of S. aureus wild type versus tarO mutant, primary screen, teichoic acid synthesis inhibitors, RN4220, OD600 (AID 463173). To be noted: S. aureus RN4220 wild type/DeltatarO growth, OD600, 18 h, stronger effect = lower value, screened at 18.75 µg/mL (by protocol).
Take `O=c1c2ccccc2nc(-c2ccc(Cl)cc2)n1CCCCOc1ccc(F)cc1`: the survival was inactive: 60%.

As for `CN1C(=O)SC(N(CC(N)=O)c2ccccc2)C1=O` (centres undefined), the survival was inactive: 98%.

Take `COC(=O)c1ccc(NC(=O)CCOc2ccccc2)cc1`: the survival is inactive: 76%.

Regarding `Cc1ccc(Cn2c(Cc3ccccc3)nc3ccccc32)cc1`, the survival was active: -1%.

Turning to `Cc1ccc(N(CC(=O)NCc2ccc(OC(C)C)cc2)S(=O)(=O)N(C)C)cc1`, the survival is inactive: 45%.

As to `CCOC(=O)c1ccccc1NC(=O)CCc1c(C)nc2c(c1C)c(=O)n(C)c(=O)n2C`, the survival was inactive: 91%.

As to `CCOc1ccc(CN2C(=O)c3ccccc3Sc3ccc(C(=O)NC4CCC(C)CC4)cc32)cc1` (centres undefined), the survival was inactive: 88%.

Consider `COC(=O)c1ccc(NC(=O)c2cc3cc4ccc(OC)c(Cl)c4nc3s2)cc1`, for which the survival is inactive: 88%.

Consider `COc1ccc(CNC(=O)CCS(=O)(=O)c2cc3c4c(c2)CCN4C(=O)CC3)cc1`, for which the survival was inactive: 77%.

As for `Cc1cccc(NC(=O)Cn2c(=O)oc3cc(S(=O)(=O)N4CCCCCC4)ccc32)c1`, the survival was inactive: 106%.

On to `COc1ccc(-c2noc(CSc3nnc(-c4ccncc4)n3-c3ccc(OC)cc3)n2)cc1`, for which the survival is inactive: 102%.

As to `Cn1cc(C(=O)N2CCN(c3ccccc3)CC2)c(=O)c2cc(S(=O)(=O)N3CCCC3)ccc21`, the survival is inactive: 135%.

As to `O=C(NC1CC(=O)N(c2ccc(F)cc2)C1)C(c1ccccc1)c1ccccc1` (centres undefined), the survival was inactive: 135%.

For the compound `O=C(C1CC1)N1CCc2cc(Br)cc(S(=O)(=O)Nc3ccc(C(F)(F)F)cc3)c21`, the survival was inactive: 67%.

As to `CCOc1ccc(-n2nc3ccc(NC(=O)COc4ccccc4C)cc3n2)cc1`, the survival was inactive: 83%.

As for `Cc1ccc(CSc2nc3cccnc3n2Cc2nc(-c3ccccc3F)oc2C)cc1`, the survival was inactive: 73%.

Regarding `COCCNC(=O)c1ccc(NC(=O)N2CCCCc3ccccc32)cc1`, the survival was inactive: 49%.

Regarding `CCOc1ccc(CNC(=O)CN2C(=O)CSc3c2c(C)nn3-c2ccccc2)cc1`, the survival was inactive: 80%.

As to `O=C(Nc1c(O)c2ccccc2oc1=O)c1ccccc1Cl`, the survival was inactive: 64%.

In the case of `COc1nc(N(C)C)nc(N(CN2C(=O)c3ccccc3C2=O)S(=O)(=O)c2ccc(C)cc2)n1`, the survival was inactive: 108%.

As for `COc1ccc(S(=O)(=O)N(CCc2ccccc2)CC(=O)NCc2ccc(C)cc2)cc1`, the survival is inactive: 67%.

As for `CCCC(=O)Nc1nnc(S(=O)(=O)N(C)c2ccccc2)s1`, the survival was inactive: 113%.

Regarding `COC(=O)c1ccccc1NC(=O)CSc1c2c(nc3ccc(Cl)cc13)CCCC2`, the survival was inactive: 78%.

As to `COc1ccccc1CCNC(=O)C1CCN(c2nc3ccccc3nc2C(F)(F)F)CC1`, the survival is inactive: 121%.
